Results taken from the RNAGym collection of RNA variant scans (doi:10.1101/gad.245936.114).
Variants at the floor of the assay are shown more often than the library holds them.

B1: tRNA (parent)
chain: CUCUCGGUAGCCAAGUUGGUUUAAGGCGCAAGACUUUAAUUUAUCACUACGAAAUCUUGAGAUCGGGCGUUCGACUCGCCCCCGGGAGAUUUUUUCCUCGAGCAA

Variants of: B1
Assay: nonsense suppression (GFP-seq) (ratio to wild type); higher = more function; SUP4oc tRNA, yeast GFP reporter sort-seq
Summary of the method: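 To measure nonsense suppression, tRNA variants from a library carrying ~3% random mutations were integrated into the yeast genome alongside RFP and a GFP ochre reporter under galactose control. Growth took place in raffinose/galactose medium supplemented with 80 mg/L adenine, followed by sorting into GFP/RFP bins and Illumina sequencing of each bin (phred ≥30). For each variant with ≥100 reads and ≥30 cells, the bin median GFP/RFP values were weighted by its estimated cell share per bin and referenced to the unmutated parent tRNA.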
For U16A U58G U76C G78A, the nonsense suppression was ≤ 0.026. For U16A U71C, the nonsense suppression was ≤ 0.026. For U16A U71G C75G, the nonsense suppression was ≤ 0.026. With U16C A23C C34G G61A the nonsense suppression was ≤ 0.026. With U16C A23C G28A the nonsense suppression was ≤ 0.026. In the case of U16C A23G G28U, the nonsense suppression is reported as ≤ 0.026. For U16C A30G C34U, the nonsense suppression was ≤ 0.026. With U16C A31G U57C the nonsense suppression was 0.922. With U16C A33C the nonsense suppression was ≤ 0.026. For U16C A33G A62G, the nonsense suppression was ≤ 0.026. With U16C A33U the nonsense suppression was ≤ 0.026. In the case of U16C A33U G65A C68U C83G, the nonsense suppression is reported as ≤ 0.026. For U16C A33U G65A C68U C83G G88U, the nonsense suppression was ≤ 0.026. In the case of U16C A62C, the nonsense suppression is reported as ≤ 0.026. With U16C A62G U63C the nonsense suppression was ≤ 0.026. In the case of U16C A74C, the nonsense suppression is reported as ≤ 0.026. In the case of U16C C27G, the nonsense suppression is reported as ≤ 0.026. In the case of U16C C27G C34G U35A C80G, the nonsense suppression is reported as ≤ 0.026. For U16C C29U, the nonsense suppression was 1.11. For U16C C29U A60G, the nonsense suppression was ≤ 0.026. In the case of U16C C34A G67U G69U C75U, the nonsense suppression is reported as ≤ 0.026. In the case of U16C C56A C64A, the nonsense suppression is reported as ≤ 0.026. In the case of U16C C56G A60C, the nonsense suppression is reported as ≤ 0.026. In the case of U16C C56G U76C, the nonsense suppression is reported as ≤ 0.026. With U16C C64G the nonsense suppression was ≤ 0.026. With U16C C72A C77G G78U the nonsense suppression was ≤ 0.026. For U16C C77G, the nonsense suppression was ≤ 0.026. In the case of U16C C79A, the nonsense suppression is reported as ≤ 0.026. In the case of U16C C81G, the nonsense suppression is reported as ≤ 0.026. With U16C C83G the nonsense suppression was ≤ 0.026. With U16C G18A A24G G65C the nonsense suppression was ≤ 0.026. In the case of U16C G18C A62C, the nonsense suppression is reported as ≤ 0.026. With U16C G18U A24C G25A the nonsense suppression was ≤ 0.026. In the case of U16C G18U A24U C79G, the nonsense suppression is reported as ≤ 0.026. In the case of U16C G19U G26A, the nonsense suppression is reported as ≤ 0.026. In the case of U16C G19U G32A U35G C80G, the nonsense suppression is reported as ≤ 0.026. For U16C G26A, the nonsense suppression was ≤ 0.026. For U16C G26U, the nonsense suppression was ≤ 0.026. In the case of U16C G28A, the nonsense suppression is reported as 1.06. With U16C G59C G69U C72G the nonsense suppression was ≤ 0.026. In the case of U16C G59C G69U C72U, the nonsense suppression is reported as ≤ 0.026. With U16C G65U the nonsense suppression was ≤ 0.026. For U16C G66C A87G, the nonsense suppression was ≤ 0.026. With U16C G66U A74C the nonsense suppression was ≤ 0.026. With U16C G73A the nonsense suppression was 1.22. With U16C G78A the nonsense suppression was 0.837. For U16C G85C, the nonsense suppression was ≤ 0.026. For U16C G85C G88U, the nonsense suppression was ≤ 0.026. For U16C G88U, the nonsense suppression was ≤ 0.026. For U16C U17G U55C A74C, the nonsense suppression was ≤ 0.026. In the case of U16C U20C U70A, the nonsense suppression is reported as ≤ 0.026. In the case of U16C U21A C77A, the nonsense suppression is reported as ≤ 0.026. For U16C U21A U22G, the nonsense suppression was 0.861. U16C U21C A31U showed a nonsense suppression of 0.204. With U16C U21G A31G G32C G69A U71C C75A G86A the nonsense suppression was ≤ 0.026. For U16C U21G G25A A31G C34A G73U, the nonsense suppression was ≤ 0.026. With U16C U35A the nonsense suppression was ≤ 0.026. With U16C U35G the nonsense suppression was ≤ 0.026. Variant U16C U55C has a nonsense suppression of 0.769. With U16C U57A the nonsense suppression was ≤ 0.026. With U16C U57A G61C U76G the nonsense suppression was ≤ 0.026. With U16C U57G A74C C79G the nonsense suppression was ≤ 0.026. In the case of U16C U58A G69A, the nonsense suppression is reported as ≤ 0.026. For U16C U58A G88A, the nonsense suppression was ≤ 0.026. For U16C U63C, the nonsense suppression was 1.11. In the case of U16C U70C C75A C79A, the nonsense suppression is reported as ≤ 0.026. In the case of U16C U71A, the nonsense suppression is reported as ≤ 0.026. With U16C U71G the nonsense suppression was ≤ 0.026. In the case of U16G A24U G66U G88A, the nonsense suppression is reported as ≤ 0.026. In the case of U16G A30G C64G, the nonsense suppression is reported as ≤ 0.026. In the case of U16G A30U C64U G69A C80A, the nonsense suppression is reported as ≤ 0.026. With U16G A31C the nonsense suppression was ≤ 0.026. In the case of U16G A31G, the nonsense suppression is reported as 1.15. In the case of U16G A31U, the nonsense suppression is reported as ≤ 0.026. For U16G A33G U70G, the nonsense suppression was ≤ 0.026. With U16G A54C C81U the nonsense suppression was 0.0601. For U16G A54C C83U, the nonsense suppression was ≤ 0.026. With U16G A54U the nonsense suppression was 1.18. For U16G C27U G73A G88C, the nonsense suppression was ≤ 0.026. In the case of U16G C29U A89C, the nonsense suppression is reported as ≤ 0.026. With U16G C34U the nonsense suppression was ≤ 0.026. For U16G C56A, the nonsense suppression was ≤ 0.026. With U16G C56A U63G G85U the nonsense suppression was ≤ 0.026. For U16G C56U C64A, the nonsense suppression was ≤ 0.026. For U16G C64G, the nonsense suppression was ≤ 0.026. In the case of U16G C75A G84U, the nonsense suppression is reported as ≤ 0.026. For U16G C77U G85C G88U, the nonsense suppression was ≤ 0.026. In the case of U16G C79A, the nonsense suppression is reported as ≤ 0.026. With U16G C79A G84U the nonsense suppression was ≤ 0.026. With U16G C80A the nonsense suppression was ≤ 0.026. With U16G G18A A30G U76C the nonsense suppression was ≤ 0.026. For U16G G19C, the nonsense suppression was ≤ 0.026. In the case of U16G G19C C68A, the nonsense suppression is reported as ≤ 0.026. For U16G G25A, the nonsense suppression was ≤ 0.026. U16G G25C gave a nonsense suppression of 0.2. In the case of U16G G25C A54U, the nonsense suppression is reported as ≤ 0.026. In the case of U16G G25C G59U G78U G84A, the nonsense suppression is reported as ≤ 0.026. For U16G G25C U55G, the nonsense suppression was ≤ 0.026. For U16G G25U, the nonsense suppression was ≤ 0.026. With U16G G28C C77A the nonsense suppression was ≤ 0.026. For U16G G28U G67U, the nonsense suppression was ≤ 0.026. In the case of U16G G32C C77A G88U, the nonsense suppression is reported as ≤ 0.026. For U16G G32U C79A, the nonsense suppression was ≤ 0.026. With U16G G66C the nonsense suppression was ≤ 0.026. With U16G G67A the nonsense suppression was 0.178. In the case of U16G G69A G86U A87C, the nonsense suppression is reported as ≤ 0.026. For U16G G69U, the nonsense suppression was ≤ 0.026. With U16G G85C the nonsense suppression was 0.0285. Work on U16G G85U yielded a nonsense suppression of 1.06. With U16G G88A the nonsense suppression was ≤ 0.026. Work on U16G U17A yielded a nonsense suppression of 1.05. For U16G U17C U76G, the nonsense suppression was ≤ 0.026. For U16G U17G A30C U70G G84C, the nonsense suppression was ≤ 0.026. With U16G U20A C34G the nonsense suppression was ≤ 0.026. With U16G U20C A30C G88U the nonsense suppression was ≤ 0.026. With U16G U20C C68A A87G the nonsense suppression was ≤ 0.026. With U16G U20G A23U C56G A62U G69U U70G the nonsense suppression was ≤ 0.026. With U16G U21A U57G A62G the nonsense suppression was ≤ 0.026. Variant U16G U21C has a nonsense suppression of 0.905. Variant U16G U21G has a nonsense suppression of 1.1. With U16G U21G C77G the nonsense suppression was ≤ 0.026. For U16G U22C C64G U71A, the nonsense suppression was ≤ 0.026. For U16G U22C G86A, the nonsense suppression was ≤ 0.026. In the case of U16G U35G C80A, the nonsense suppression is reported as ≤ 0.026. For U16G U35G G78U, the nonsense suppression was ≤ 0.026. With U16G U57G U58C G66U C77A A89C the nonsense suppression was ≤ 0.026. For U16G U57G U63C G78A C83G, the nonsense suppression was ≤ 0.026. With U16G U58C C64A C80U the nonsense suppression was ≤ 0.026. With U16G U76A the nonsense suppression was ≤ 0.026. In the case of U16G U76C, the nonsense suppression is reported as 1.07. In the case of U17A, the nonsense suppression is reported as 0.937. With U17A A23C C29A the nonsense suppression was ≤ 0.026. With U17A A23C C56A U58A C72A G78A the nonsense suppression was ≤ 0.026. For U17A A23G G84U, the nonsense suppression was ≤ 0.026. U17A A24U showed a nonsense suppression of 0.2. For U17A A30G, the nonsense suppression was 0.369. With U17A A30G C72G A89U the nonsense suppression was ≤ 0.026. For U17A A30G C82A, the nonsense suppression was ≤ 0.026. With U17A A30U A33U U55A C56G the nonsense suppression was ≤ 0.026. With U17A A31U G66A G67C the nonsense suppression was ≤ 0.026. For U17A A54C U58G, the nonsense suppression was ≤ 0.026. With U17A A87G the nonsense suppression was 1.19. For U17A A89G, the nonsense suppression was ≤ 0.026. For U17A C27A A30G U57A U63A, the nonsense suppression was ≤ 0.026. With U17A C27A C83G A87U the nonsense suppression was ≤ 0.026. With U17A C27G the nonsense suppression was ≤ 0.026. With U17A C29G the nonsense suppression was ≤ 0.026. For U17A C29G A74U U76G, the nonsense suppression was ≤ 0.026. With U17A C34G the nonsense suppression was ≤ 0.026. For U17A C56A U57G, the nonsense suppression was ≤ 0.026. In the case of U17A C64A, the nonsense suppression is reported as ≤ 0.026. In the case of U17A C64U C79G, the nonsense suppression is reported as ≤ 0.026. With U17A C68A the nonsense suppression was ≤ 0.026. With U17A C79A G86C G88U the nonsense suppression was ≤ 0.026. For U17A G18U, the nonsense suppression was ≤ 0.026. For U17A G19U U20C, the nonsense suppression was ≤ 0.026. With U17A G19U U22A G28C A54G the nonsense suppression was ≤ 0.026. For U17A G25A, the nonsense suppression was ≤ 0.026. With U17A G25A A30G U58A the nonsense suppression was ≤ 0.026. With U17A G26A C34G the nonsense suppression was ≤ 0.026. For U17A G26U A89G, the nonsense suppression was ≤ 0.026. In the case of U17A G26U A89U, the nonsense suppression is reported as ≤ 0.026. For U17A G28U A31C C80G G84C G86A, the nonsense suppression was ≤ 0.026. In the case of U17A G32A G78C, the nonsense suppression is reported as ≤ 0.026. Work on U17A G32C U71G yielded a nonsense suppression of 0.0947. U17A G61A showed a nonsense suppression of 0.83. With U17A G65A G86U the nonsense suppression was ≤ 0.026.
